# In all, about 110,000 compounds went through this assay and about 40 (0.04%) were called active. The inconclusive results got no clear call from the source; some entries with a clear call stand among them for comparison. Calls come from the whole dose curve; as a rule, active = well fitted curve in the direction sought with a large enough effect in the signal ratio (not every such curve was filed as active); inconclusive = small, poorly fitted or top-dose-only effect, or a change in a side signal; inactive = flat fitted curve, though single readings scatter; the % refers to the signal ratio. Potencies of inconclusive entries are doubtful fits and often do not repeat.
# Test: IkB Signaling;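 for IkBa stabilization activation: 0% = basal untreated cells and 100% = reference inhibitor full response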
# Conditions: ABC-DLBCL IkBa-CBG/CBR dual luciferase ratio (green luciferase fused to IkBa over red control in OCI-Ly3 lymphoma cells), 4 h; IkBa stabilization activation: at 57.1 µM (top of the series), scaled: untreated 0%, proteasome inhibitor 100% unless noted
# In short: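 Luminescence ratio of IκBα-fused green versus native red beetle luciferase in OCI-Ly3 cells, 4 h post-doxycycline with compound; red signal alone, scaled from basal (0%) to zero light (-100%), flagged nonspecific or cytotoxic effects.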
# Potency is the fitted concentration of half-maximal effect.
Compound,IkBa stabilization activation,Potency
COc1ccc(COC(=O)c2[nH]c3c(c2C)C(=O)CC(c2ccc(OC)c(OC)c2)C3)cc1 (stereo unspecified),inconclusive: 5.36% [signal inhibitor],
C#CC(C)(CC)NC(=O)Cn1nnc(-c2ccc(OCc3ccccc3F)cc2)n1 (stereo unspecified),inconclusive: 1.81% [signal inhibitor],
Nc1nc(-c2cccs2)cs1,"inactive: 0.627% [at 11.4 µM, scaled: untreated 0%, proteasome inhibitor 100%]",
O=C(c1ccco1)N1CCN(S(=O)(=O)c2ccc(S(=O)(=O)NC3CCCC3)cc2)CC1,inactive: 0.231%,
COc1ccc(C2Nc3ccccc3-n3c(-c4ccccc4)c4c(=O)n(C)c(=O)n(C)c4c32)cc1 (stereo unspecified),inconclusive: -0.0804% [signal inhibitor],
COc1cc(C(=O)NCc2cn3cccc(C)c3n2)cc(OC)c1OC,inactive: 5.18%,
COc1ccccc1-c1noc(-c2ccc(NCc3ccccc3)c([N+](=O)[O-])c2)n1,inactive: -0.999%,
CCOc1ccc(NC(=O)Nc2cccc(C)n2)cc1,inactive: -3.98%,
Cc1ccc(-n2nc3c(N4CCC(C(=O)NCCc5ccccc5)CC4)nnc(C)c3c2C)cc1,inactive: 0.537%,
COc1ccc(C)cc1NC(=O)CN(C)S(=O)(=O)c1ccc2c(c1)CCCN2C(C)=O,inconclusive: -0.729% [signal inhibitor],
COc1ccc(N2Cc3cccc(C(=O)Nc4ccc(C)cc4)c3C2=O)cc1,inactive: -0.51%,
Cc1ccc(O)c(N=CC2=C(O)c3ccccc3C2=O)c1,,"inconclusive: 20 µM [rising, partial curve]"
CCC(=O)N1CCc2cc(S(=O)(=O)N3CCN(c4ccccc4F)CC3)ccc21,inconclusive: 8.46% [signal inhibitor],
COc1cc(OC)c(NC(=O)Cn2nc(C)n3cccc3c2=O)cc1Cl,inconclusive: -1.92% [signal inhibitor],
COc1ccc(C)cc1NC(=O)CN1C(=O)CSc2ccc(S(=O)(=O)N3CCCC3)cc21,inactive: -1.51%,
COc1ccccc1OCC(=O)Nc1ccc(S(=O)(=O)N2CCCCCC2)cc1,inconclusive: 0.468% [signal inhibitor],
COc1ccc(OC)c(NC(=O)CN2CCC(C(=O)c3ccc(C)cc3)CC2)c1,inconclusive: 5.49% [signal inhibitor],
O=C(Nc1cnc2ccccn2c1=O)c1ccc(F)cc1,,"inconclusive: 20 µM [signal inhibitor, partial curve]"
CCOC(=O)c1nnn(-c2nonc2N)c1COc1cc(C)c(Cl)c(C)c1,inconclusive: 7.67% [signal inhibitor],
COc1cccc(CN(C(=O)c2oc3ccc(Br)cc3c2C)C2CCS(=O)(=O)C2)c1 (stereo unspecified),inactive: -1.89%,
CCCCc1nc2ccccc2c(=O)n1NC(=O)c1c(O)c2c(n(CC(C)C)c1=O)CCCC2,inconclusive: 6.56% [signal inhibitor],
Cc1coc2cc3oc(=O)c(CCC(=O)N4CCCCC4)c(C)c3cc12,inconclusive: -3.66% [signal inhibitor],

Compound,IkBa stabilization activation,Potency
c1coc(CNc2nc3nonc3nc2NCc2ccco2)c1,inconclusive: 5% [signal inhibitor],
Cc1cn2c(=O)cc(COC(=O)c3cccc(NC(=O)COc4ccccc4)c3)nc2s1,inconclusive: 4.33% [signal inhibitor],
Cc1cccc(N2CCN(c3nc4ccc(C(=O)c5ccccc5)cc4n4cnnc34)CC2C)c1 (stereo unspecified),inconclusive: -1.05% [signal inhibitor],
CO[Si](CCCNCCC[Si](OC)(OC)OC)(OC)OC,inactive: 0.0436%,
O=C1c2c(O)ccc(O)c2C(=O)c2c(NCCNCCO)ccc(NCCNCCO)c21,"inconclusive: 1.86% [signal inhibitor] [at 25.6 µM, scaled: untreated 0%, proteasome inhibitor 100%]","inconclusive: 15.8 µM [signal inhibitor, partial curve]"
Cc1ccc2c(CC(=O)N3CCN(c4cccc(Cl)c4)CC3)coc2c1C,inconclusive: -1.67% [signal inhibitor],
CCc1nnc(NC(=O)CCC(=O)Nc2ccccc2)s1,inconclusive: 8.03% [signal activator],
Cc1cc(N2CCN(S(=O)(=O)c3ccccc3)CC2)c2ccccc2n1,inconclusive: 1.35% [signal inhibitor],
COC(=O)CN1C(=O)CSc2ccc(S(=O)(=O)Nc3ccccc3)cc21,inconclusive: 1.34% [signal inhibitor],
CN1CCN(S(=O)(=O)c2ccc(SCCOc3ccccc3)nc2)CC1,inconclusive: 4.66% [signal inhibitor],
COC(=O)c1ccc(Nc2nc(-c3ccc(C)cc3)nc3ccccc23)cc1,inconclusive: 0.0826% [signal inhibitor],
COc1ccc(CNc2nc3c(c(=O)n(Cc4ccc(F)cc4)c(=O)n3C)n2C)cc1,inconclusive: -5.03% [signal inhibitor],
CC(=O)N1CCc2c(sc3c2c(=O)n(Cc2ccccc2)c(=O)n3Cc2cccc(Cl)c2)C1,inconclusive: 5.18% [signal inhibitor],
COc1ccccc1C(=O)Nc1ccc2c(c1)nc(CCNC(C)=O)n2C,inactive: 3.12%,
COc1cc(C(=O)N2CCc3c([nH]c4ccccc34)C2c2ccc(F)cc2)cc(OC)c1OC (stereo unspecified),inconclusive: 0.305% [signal inhibitor],
COc1ccc(NC(=O)c2ccc3c(c2)N(Cc2cccc(Cl)c2)C(=O)c2ccccc2S3(=O)=O)cc1Cl,inactive: 1.5%,
O=C(Nc1ccc(NC(=O)C2CC2)nc1)c1ccccn1,,"inconclusive: 31.6 µM [signal inhibitor, partial curve]"
CCc1ccc(-c2nc3cc(NC(=O)c4cc5ccccc5cc4OC)ccc3o2)cc1,inconclusive: 2.56% [signal inhibitor],
COc1ccc(Br)c(C(=O)Nc2cc3c(cc2N2CCCCC2)n(C)c(=O)c(=O)n3C)c1,inconclusive: 1.86% [signal inhibitor],
O=C(OC1CCCCC1)c1ccc2c(c1)C1C=CCC1C(C(=O)O)N2 (stereo unspecified),inactive: 4.74%,
CCCCOc1ccccc1NC(=O)CC1Nc2ccccc2NC1=O (stereo unspecified),inactive: -2.34%,
COc1cc(C2CC(=O)N(Cc3ccc(F)cc3)c3ccccc3S2)cc(OC)c1OC (stereo unspecified),inconclusive: 1.75% [signal inhibitor],

Compound,IkBa stabilization activation,Potency
CC(C)C[C@H](NC(=O)[C@@H](NC(=O)N[C@@H](Cc1ccccc1)C(=O)O)[C@H]1CCN=C(N)N1)C(=O)N[C@H](C=O)Cc1ccccc1,"inactive: 2.56% [at 11.4 µM, scaled: untreated 0%, proteasome inhibitor 100%]",
COC(=O)c1ccccc1NC(=O)c1nc(S(=O)(=O)Cc2cccc(C)c2)ncc1Cl,inconclusive: -2.51% [signal inhibitor],
COC(=O)c1ccccc1NC(=O)c1ccc2nc(Cc3ccccc3)oc2c1,inactive: 0.373%,
c1ccc2nc(CC[C@@H]3CCCCN3)ccc2c1,"inactive: -1.44% [at 11.4 µM, scaled: untreated 0%, proteasome inhibitor 100%]",
Cc1cccc(NC(=O)c2c(C)cc(C)nc2SCC(=O)Nc2c(C)cc(C)cc2C)c1,inconclusive: 0.248% [signal inhibitor],
OC(CN(c1ccccc1)c1ccccc1)Cn1cnc2ccccc21 (stereo unspecified),inconclusive: -1.58% [signal inhibitor],
Cn1c(=O)oc2cc(S(=O)(=O)N3CCC(C(=O)NCc4ccc(F)cc4)CC3)ccc21,inconclusive: 1.71% [signal inhibitor],
CCNC(=O)NC(=O)COC(=O)CCCSc1nc2ccccc2[nH]1,inconclusive: -3.05% [signal inhibitor],
O=C(Nc1nnc(S(=O)(=O)N2CCCC2)s1)c1ccccc1Br,inconclusive: 3.13% [signal inhibitor],
COC(=O)[C@@H]1O[C@@H](SCCN)[C@@H](O)[C@H](O)[C@H]1O,"inactive: 0.213% [at 11.4 µM, scaled: untreated 0%, proteasome inhibitor 100%]",
Cc1ccccc1Cn1nnc2c(=O)[nH]c(C3CCCN(C(=O)c4ccc(F)cc4)C3)nc21 (stereo unspecified),inactive: 1.51%,
CCOC(=O)c1ccc(NC(=O)CSc2nnc(CNC(=O)c3ccc(OC)cc3)n2CC)cc1,inconclusive: -0.692% [signal inhibitor],
COc1ccc(NC(=O)CC2C(=O)N(c3ccc(C)cc3)C(=O)N2Cc2ccc3c(c2)OCO3)cc1 (stereo unspecified),inconclusive: 0.917% [signal inhibitor],
COc1ccc(N2CCN(S(=O)(=O)c3ccc4c(c3)CCCN4C(C)=O)CC2)cc1,inconclusive: 1.81% [signal inhibitor],
CCC(C)n1c(SCc2c(F)cccc2Cl)nc2ccsc2c1=O (stereo unspecified),inconclusive: 2.21% [signal inhibitor],
Cc1ccc2c(c1)N(C(=O)CCC(=O)NCc1cccs1)CCO2,inactive: 1.95%,
COc1cc(N2C(=O)CSC23C(=O)N(Cc2ccc(C)cc2)c2ccccc23)cc(OC)c1OC (stereo unspecified),inconclusive: 2.45% [signal inhibitor],
Cc1ccc(C)c(CN2C(=O)c3ccccc3S(=O)c3ccc(C(=O)N4CCN(c5ccccc5F)CC4)cc32)c1 (stereo unspecified),inconclusive: 0.402% [signal inhibitor],
COc1ccc(OC)c(NC(=O)CCc2c(C)nn(-c3ccc(N4CCCC4)nn3)c2C)c1,inactive: 0.12%,
CC(C)(C)OC(=O)N1CCC(c2c(C(=O)NCCCN3CCc4ccccc4C3)cnn2-c2ccccc2)CC1,inconclusive: 0.0589% [signal inhibitor],
CCOc1ccccc1NC(=O)Cn1c(=O)n(CCCC(=O)NCCc2ccc(C)cc2)c(=O)c2ccccc21,inactive: 3.4%,
